Binding signal (log2 normalized intensity) data for 73 sequences are collected here from PMC10726135.

Some of the results follow. At the low end of the ranking, values are background and their order means little. The protein was read in a cell extract, so binding may be indirect.

In this experiment the target is T1, HNF4alpha8 (COS-7 nuclear extract) (UniProt P41235-5).
T1 sequence: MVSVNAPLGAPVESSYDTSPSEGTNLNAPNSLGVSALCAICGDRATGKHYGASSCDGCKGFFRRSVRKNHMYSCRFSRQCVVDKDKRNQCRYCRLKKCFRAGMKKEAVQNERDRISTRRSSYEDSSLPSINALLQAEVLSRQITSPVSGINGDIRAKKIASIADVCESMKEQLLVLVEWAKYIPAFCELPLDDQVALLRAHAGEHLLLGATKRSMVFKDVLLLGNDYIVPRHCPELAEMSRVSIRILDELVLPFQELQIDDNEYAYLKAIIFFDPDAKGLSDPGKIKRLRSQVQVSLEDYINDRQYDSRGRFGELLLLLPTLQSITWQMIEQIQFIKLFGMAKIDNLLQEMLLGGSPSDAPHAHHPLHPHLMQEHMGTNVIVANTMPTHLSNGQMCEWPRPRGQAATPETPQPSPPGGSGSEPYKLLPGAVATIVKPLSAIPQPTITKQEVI
Briefly: protein-binding microarray. As to conditions: COS-7 nuclear extract on double-stranded Agilent 4x180k PBM; binding buffer, salt, pH and temperature not given; high values mean tight binding; double strand, one strand shown; sequences stand for … in …GCCTAGGGAGATTAGAGTATCGGTCGA
For TCTGATGAGTCCCCCGGCTCTACGCAAGTG, the binding signal (log2 normalized intensity) was 2.46.
The same measure for ACGAATGGGCAAAACATTCCTAAACAAGGG: -1.22.
The same measure for ACGCTCCCAGTATGAGCGGCGCTGACCCCG: 5.07.
The same measure for CGCAAGCATATCTCTAGATCTCAGTTGGTC: 1.51; for AGGCTAAGGCAGGAGAATCGCTTGAACCCA: 2.11; for GACCTAGAAGCCAGGGACCAGGAAGGCAGT: -1.39.
CGCCCGCGCCGGCCTCGGTCCTCGCTCGCC: the binding signal (log2 normalized intensity) was -1.3.
The figure for AAAGCTTCTGCGGAAATAATTGATTCAGGT is 0.0259.
The same measure for GGAGGAGCTGTTTGACATCCAAAGTTTCCT: 0.202.
The figure for GCAGCTGAGGATTGTCAGGCCAGTAGGTCA is 1.91; for ATTCATAAAATTACGCCACAGAGTTGCTGT it is -1.17.
Consider ATTAAGATCAAAGAATTCCTAATAATACTG, for which the binding signal (log2 normalized intensity) was -1.33.
The same measure for TGAGTTCTGTCCTTTGTCCCACATCTGTGA: 1.97; for ACCCTCAGGCTCCACCGGATGGATAGGAAT: -1.41; for GTGCCGTGAGGGGTTATGGAGAGTGGAAGA: -1.37.
Turning to ATCTTTATCTTTTCACTTTTTCCCTGCATG, the binding signal (log2 normalized intensity) worked out at 1.04.
The figure for TATCTTGTGACCTTTGACTCATTATCCCCC is 7.09; for GGTTTTCACAACCTCCCTTTGAAGGAGCCA it is -1.36; for AAACCTTTAATGATGAGTCCAAGTTCCACA it is 2.9.
Consider CCCCACTCCACCTACGCTACGCACCAGGCA, for which the binding signal (log2 normalized intensity) was 0.531.
The figure for TATATTCAACCCCCACTTCCTGACTTGGCC is 3.85; for TGCAGAGCTTAGTTTGCCACGGTCAGCAAT it is -1.31; for CAACCCAAAGCATGTCCAGAATCCTAACTG it is -1.29.
The same measure for GAAATCTCAGTCAAATGCAAAGGCAAACAG: -1.14.
The figure for AATCGCATTGCAAAATCCATCTAAATGGCA is -1.33; for GATGAATAGGGACGTTCTACTTGTTAGTAA it is 1.66.
Consider TGATCTTTGAAACATAACAGCAACAACACA, for which the binding signal (log2 normalized intensity) is 0.241.
As for ATGGTGGAGGGTCTTGCTTTGATGTTGATG, the binding signal (log2 normalized intensity) worked out at 1.31.
Take GCTCTAGACATCGACCTTTGTGGGCTTCAG: the binding signal (log2 normalized intensity) was 3.19.
The same measure for GGGGAAAGAGCTGAGGAAAAAAGTTTGAAA: -1.36; for AATCAACCTTTGATCGTTTGCATGCAGGGC: 3.98; for CAGAATTACTGACTCCACAGTGGGGCAGAT: -1.23.
The figure for GACAGCAGTAGAAAACAGAGAAGCCGTGGT is -1.38; for AAAGCCTAGGCTCCAGGGCACTGCCCTTTG it is 3.51; for AAGAAAGGGGAGATAATGCCAGAAAGGTCT it is -1.31.
The figure for GATACAACGGTTCAAAGGACAGACTTTGGA is 4.08; for CAAAACCCAGTTCATAGGTCAATTCTTTGA it is 3.58; for GTGTGTGGCCTGCACAGTTGCACAATGTCA it is 0.815.
TTTGTAAGTACATTAATATACTGTGTATAC: the binding signal (log2 normalized intensity) worked out at 1.44.
For the sequence TACTCTCTCTTCTGGAGGAGGATCAGGTTT, the binding signal (log2 normalized intensity) is -0.165.
The figure for AAGTGCGTCCTGTGGCAAAGGTGAATGACC is 2.99; for CGCACCTGCCTGTCTCACCTCGCTATCACC it is -1.18; for GGAAAACAGGCTCAGCAAAGTCAGGTCAGT it is 0.163.
On to TCACAGTGTGGGGCAAATCTGAGGTCAAAG, for which the binding signal (log2 normalized intensity) came out at 2.51.
The figure for AATGCCAAGGACTGAAAGAACACAGCGCAG is -1.31; for AGGGATGGCATCACCTTTGGTCAGCCCACT it is 2.79; for GGTCCACCCGTCCGCTTGATGCCTGTTGCT it is 0.303.
The figure for TGAAGATGCCTGATAAAGGGGGCAAAGGGC is 6.94; for TTGTTTATTCAGAGTTAGCTAAGCTTCACT it is -1.25; for GAGCAGTCAAACTGGTTTCTTGTCTGCCCC it is 3.57.
Regarding ACCTCTCTGATGCCATGATAAGCAGTGTGG, the binding signal (log2 normalized intensity) amounted to 0.716.
As to CACTATTGTGCTAATATAAGTCATTGCCAT, the binding signal (log2 normalized intensity) was 0.705.
In the case of AATGGCTAAGGGCATCTACTTTTAAAACGC, the binding signal (log2 normalized intensity) is -1.31.
The figure for TCATTTGGGGCGGGCGGTCGGAGTCCACGT is 3.01.
On to TAAGTATGACCAGCAGGGTGACCAGTGGAC, for which the binding signal (log2 normalized intensity) stood at 1.87.
The same measure for ACCTGGGTGTAGGTGCTGCACCTTGAAACC: 2.83; for TGAACAATTGATTTATAGCCTTTTTGCCCA: 1.33; for CTTTGTGGCAGGAGGAGCTGTTTGACATCC: 0.44.
The same measure for ACAACACACCACCTGCTACTCCCTTTGGAA: -1.37; for TGCTCACGTTTTCCTGCTGACCCTCTCCCC: 4.22; for AAGAGCTGAGGAAAAAAGTTTGAAAATGCC: -1.18.
Regarding ATTTGCTCTGTCATCAACGTATCTGCAGGC, the binding signal (log2 normalized intensity) was determined as 0.072.
The figure for CACTCGCCTGACTCCCTGACGCCATCTGGC is -1.28; for GCTGCACAGTGGGGAGGGCAGGGTCAGAAC it is 1.42; for ACATCCTGGATTCTCAAACCTTCCAAAGTT it is 0.853.
The same measure for GCAGCCTCTGAGATGGACTCCAGTGATCTT: 2.76; for TATTTGAGTTCTTCAAGTCAGTCAAAATGA: 1.18.
The figure for TTGGAGGAGGGGGCGGTTAAACATTCAGAT is -1.32.
Regarding CGACCCCTCGAGGCAACCTTTGACCTGGTA, the binding signal (log2 normalized intensity) came to 8.16.
For GCATTCCAAGAGAGCAAAGTGCTTTTTAAC, the binding signal (log2 normalized intensity) came out at 1.58.
As for CCCTCCTGAACATAATTGCAAAATCCTTAG, the binding signal (log2 normalized intensity) is -1.25.
The same measure for CTTTCATGATCCTTGGCTGTGTGACTCACC: 1.05; for GACTTTAGAACCCAAATAGACTTAAGTCTG: 0.828.
